Experimental data reported in PubChem BioAssay AID1745853 (National Center for Advancing Translational Sciences (NCATS), 2022).
The list shows a part of the results. These are further read-outs of the screen, such as a control signal, another cell line or another target. No call is given for them.

Tests used:
Assay in all cases: Primary Screen for Target Class Profiling of Small Molecule Inhibitors of Methyltransferases
[1] = target: Glycine N-methyltransferase (Homo sapiens) (UniProt Q14749); conditions: purified enzyme, MTase-Glo SAH luminescence; measured here: GNMT inhibition; at 40 µM; stronger effect = lower value
Procedure, shortened: (§1)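 Each enzyme was assayed with SAM and its substrate. SAH formation detected by MTase-Glo luminescence; single-point 40 uM screen[…].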

[2] = target: Guanidinoacetate N-methyltransferase (Homo sapiens) (UniProt Q14353); conditions: purified enzyme, MTase-Glo SAH luminescence; measured here: GAMT inhibition; at 40 µM; stronger effect = lower value
Procedure, shortened: as §1

[3] = target: Histamine N-methyltransferase (Homo sapiens) (UniProt P50135); conditions: purified enzyme, MTase-Glo SAH luminescence; measured here: HNMT inhibition; at 40 µM; stronger effect = lower value
Procedure, shortened: as §1

[4] = target: Nicotinamide N-methyltransferase (Homo sapiens) (UniProt P40261); conditions: purified enzyme, MTase-Glo SAH luminescence; measured here: NNMT inhibition; at 40 µM; stronger effect = lower value
Procedure, shortened: as §1

[5] = target: Phenylethanolamine N-methyltransferase (Homo sapiens) (UniProt P11086); conditions: purified enzyme, MTase-Glo SAH luminescence; measured here: PNMT inhibition; at 40 µM; stronger effect = lower value
Procedure, shortened: as §1
% is scaled to controls: 0 for no effect and ±100 for the full control effect.

SMILES | activity change, negative = inhibition [1] [%] | activity change, negative = inhibition [2] [%] | activity change, negative = inhibition [3] [%] | activity change, negative = inhibition [4] [%] | activity change, negative = inhibition [5] [%]
Cc1ccc(-c2ccc(N)nc2)c2cccnc12 | -11.5 | -3.27 | -6.03 | -7.16 | -4.71
COc1ccc(OC)c(S(=O)(=O)N2CCC3(CCC3OC)CC2)c1 (stereo not drawn) | 0.691 | 1.01 | 6.86 | -0.822 | 4.34
Cc1ccc(CNC(=O)CCc2nc(C3CCCN3S(C)(=O)=O)no2)o1 (stereo not drawn) | -6.83 | -13.8 | -4.09 | -19.8 | -16.1
COc1ccc(/C=C/C(N)=O)cc1OC | 3.81 | 4.32 | 10.1 | -9.89 | 3.9
Cn1c(=O)n(C)c2cc(CNCCNC(=O)c3nonc3N)ccc21 | -7.61 | 0 | -1.41 | 1.91 | -2.55
CN(CCc1cnn(C)c1)C(=O)c1coc(COc2cccc(C(F)(F)F)c2)n1 | -4.3 | -6.09 | -1.97 | -11.9 | -8.68
COc1ccccc1C1CCN(Cc2cn(-c3ccccc3)nn2)CC1 | -9.62 | -9.06 | -21.7 | -24.5 | -21.1
Cc1[nH]c(/C=C2\C(=O)Nc3cc(-c4ccccc4)ccc32)c(C)c1CCC(=O)O | -9.58 | 10.1 | -7.58 | -10.6 | -7.31
COc1ccc(NC(=O)N2CCn3c(C)ccc3C2C(C)C)cc1OC (stereo not drawn) | 10.2 | 0 | -1.74 | 1.53 | 4.14
CCC(C(=O)NCc1cccc(F)c1)n1ccc2cc(S(=O)(=O)N3CCCCC3)ccc21 (stereo not drawn) | 0.275 | 0 | -0.29 | -0.481 | 1.93
CC(=O)Nc1c2n(c3ccccc13)CC(C)(C(=O)NC1CCCC1)N(Cc1ccc(C)cc1)C2=O (stereo not drawn) | -4.5 | 0.135 | 6.87 | 2.15 | 4.76
CC(=O)c1c(C)nn(CCC(=O)N[C@@H]2CCOC[C@H]2OCCO)c1C | -0.58 | -0.491 | 1.04 | 1.3 | 4.46
Nc1nonc1-c1nc2cnccc2n1C1CCCCC1 |  | -13.2 |  | -63.1 | -27
CN1C(=O)c2cc(C(=O)NCCc3c[nH]c4ccccc34)nn2CC1(C)C(=O)NC1CCCCC1 (stereo not drawn) | 1.69 | 4.8 | -2.79 | 3.06 | 0.609
COc1ccc(Br)cc1S(=O)(=O)NC(=O)/C=C/c1ccccc1Cc1ccc2ccccc2c1 | -31.2 | -9.37 | -4.28 | -20.4 | -0.386
COc1cccc(C(=O)NC2CCN(c3cc(-c4cccs4)[nH]n3)CC2)c1OC | -4.38 | -5.02 | -1.85 | -3.9 | -2.49
CC(=O)N[C@H]1[C@H](O[C@H]2CC[C@@]3(C)C(CC[C@]4(C)C3CC=C3[C@@H]5CC(C)(C)CC[C@]5(C(=O)OC5OCC(O)C(O)C5O)CC[C@]34C)C2(C)C)O[C@H](COC2OC(C)C(O)C(OC3OC(C)C(O)C(O)C3O)C2O)[C@@H](O)[C@@H]1O (stereo partly drawn) | 0 | 19.2 | 7.7 | 3.29 | 9.01
Cn1ccnc1CN1CCN(CC2(O)CNCCOC2)CC1 (stereo not drawn) | 0.502 | 0.834 | 1.17 | 3.41 | -1.64
O=C(c1cc2cc(F)ccc2[nH]1)N1CCCC(CO)(Cc2cccc(Cl)c2)C1 (stereo not drawn) | -9.2 | -6.73 | -4.77 | -13.7 | -6.7
COC[C@H]1CCCN1Cc1cn(-c2ccccc2C)nc1-c1ccc(OC)c(F)c1 | 0.185 | 1.73 | -3.23 | -2.54 | 6.07
CCCN1C(=O)c2c(C(=O)N3CCN(c4ccccc4)CC3)ncn2CC1(C)C(=O)NCc1ccc(OC)cc1 (stereo not drawn) | 3.91 | 0 | -0.267 | 5.52 | 2.75
CN1CCN([C@H]2CCN(C(=O)CCCc3cn[nH]c3)C[C@H]2CCC(=O)O)CC1 | -2.62 | -5.02 | 2.08 | -2 | -1.76
COc1ccc(OC)c(NC(=O)Cn2c(=O)oc3cc(S(=O)(=O)NCc4ccccc4)ccc32)c1 | 12.4 | 1.44 | 13.1 | 1.94 | 10.5
CC(C)NC(=O)c1ccc2c(=O)n(Cc3ccccc3)c3nn(Cc4ccc(F)cc4)c(=O)n3c2c1 | 3.74 | 0.864 | 4.3 | 4.66 | 4
O=S(=O)(NCCn1c(-c2ccncc2)nc2ccccc21)c1ccccc1 | -3 | 2.62 | 0.614 | -4.28 | 2.98
Cc1ccc(NC(=O)N2CCn3c(C)ccc3C2C(C)C)cc1C (stereo not drawn) | 5.43 | 0 | 0.631 | -2.08 | 4.27
Cc1ccc(C)c(N2C(=O)c3cc4occc4n3CC2(C)C(=O)NC2CCCC(C)C2C)c1 (stereo not drawn) | -5.06 | 3.15 | 3.34 | -12.5 | -7.25
COCCN1CCCCCC(O)c2cc(C(=O)Nc3ccc(C)cc3)ccc21 (stereo not drawn) | -11.6 | -13.7 | -6.06 | -12.1 | -9.63
Cc1cc(C)n2nc(C(=O)N3CCCC4(CNC(=O)O4)C3)cc2n1 (stereo not drawn) | -10.8 | -6.3 | -3.34 | -11.7 | -6.31
CC(C)OCCCn1c(=O)c2ccccc2n2c(=O)n(CC(=O)c3ccc(Br)cc3)nc12 | -2.31 | 2.2 | 7.99 | -10.1 | 1.68
